Patent US7592316B2, “Peptides as NS3-serine protease inhibitors of hepatitis C virus” (Schering Corporation, priority 2000, dated 2009)
pKi: −log10 of the molar value. *1 amine or outer side, *2 acyl side, *3 side chain or, on linkers, in order; H or OH if unused. Where a SMILES comes first, the peptide text is derived from it. [ ]: non-standard residue; d: D form. The star is where a group is joined. Pro(3R,4S-CMe2) = CC1(C)[C@@H]2[C@@H](C(=O)O)NC[C@@H]21; X2 = CCCC(N[*:1])C(=O)C(=O)[*:2]; Phg = N[C@H](C(=O)O)c1ccccc1; Tle = CC(C)(C)[C@H](N)C(=O)O; CO = O=C([*:1])[*:2]; NHtBu = CC(C)(C)N*

What follows are compounds tested against HCV NS3/NS4A protease (strain 1a) (Hepatitis C virus genotype 1a, UniProt P27958) (assay: biochemical). Conditions: Table 5; HCV NS3/NS4A protease, 30° C., pH 6.5; read-out: Ki* Range.

| SMILES | pKi |
| --- | --- |
| CCCC(NC(=O)[C@@H]1[C@@H]2[C@H](CN1C(=O)[C@@H](NC(=O)OC(C)(C)C)C(C)(C)C)C2(C)C)C(=O)C(=O)NCC(=O)NCc1ccccc1 (stereo partly shown) | 7.00 to 9.00 |
| CC(C)(C)OC(=O)CCNC(=O)C(=O)C(CC(F)(F)F)NC(=O)[C@@H]1[C@@H]2[C@H](CN1C(=O)[C@@H](NC(=O)OC(C)(C)C)C1CCCCC1)C2(C)C (stereo partly shown) | 6.00 to 7.00 |

Other lines, results leading:

| pKi | SMILES |
| --- | --- |
| 6.00 to 7.00 | C=CCCC(NC(=O)[C@@H]1C2C(CN1C(=O)[C@@H](NC(=O)NC(CC)CC)C1Cc3ccccc3C1)C2(C)C)C(=O)C(=O)NCC=C (stereo partly shown) |
| 7.00 to 9.00 | C=CCCC(NC(=O)[C@@H]1[C@@H]2[C@H](CN1C(=O)[C@@H](NC(=O)OC(C)(C)C)C1CCCCC1)C2(C)C)C(=O)C(=O)NCCC(=O)NCc1ccccc1 (stereo partly shown) |
| 6.00 to 7.00 | C=CCCC(NC(=O)[C@@H]1[C@@H]2[C@H](CN1C(=O)[C@@H](NC(=O)OC(C)(C)C)C1CCCCC1)C2(C)C)C(=O)C(=O)NCCCC(=O)OCC (stereo partly shown) |

Same assay, conditions: Table 5; HCV NS3/NS4A protease, spectrophotometric assay, 30° C., pH 6.5; read-out: Ki* Range

| SMILES | pKi |
| --- | --- |
| CC1(C)[C@@H]2[C@@H](C(=O)NC(CC3CC3)C(=O)C(N)=O)N(C(=O)[C@@H](NC(=O)O[C@@H]3CCOC3)C3CCCCC3)C[C@@H]21 (stereo partly shown) | 6.00 to 7.00 |
| CCCC(NC(=O)[C@@H]1C2CCC(C)(C)OC2CN1C(=O)[C@@H](NC(=O)OC(C)(C)C)C(C)(C)C)C(=O)C(=O)OC (stereo partly shown) | < 6.00 |
| CCCC(NC(=O)[C@@H]1[C@@H]2[C@H](CN1C(=O)[C@@H](NC(=O)NC(C)(C)C)C(C)(C)C)C2(C)C)C(=O)C(=O)NCC(=O)N[C@H](C(=O)N(C)C)c1ccccc1 (stereo partly drawn) ({NHtBu-CO}-[Tle][Pro(3R,4S-CMe2)][X2]G[Phg]-NMe2) | 7.00 to 9.00 |
| CCCC(NC(=O)[C@@H]1[C@@H]2[C@H](CN1C(=O)[C@@H](NC(=S)NC(C)(C)C)C(C)(C)C)C2(C)C)C(=O)C(N)=O (stereo partly shown) | < 6.00 |
| CC(C)(C)OC(=O)N[C@H](C(=O)N1C[C@@H]2[C@H]([C@H]1C(=O)NC(CC1CCC1)C(=O)C(N)=O)C2(Cl)Cl)C1CCCCC1 (stereo partly shown) | 7.00 to 9.00 |
| COC(=O)C(=O)C(CC1CC1)NC(=O)[C@@H]1[C@@H]2[C@H](CN1C(=O)CC1CCCCC1)C2(C)C (stereo partly shown) | < 6.00 |
| CC(C)NC(=O)N[C@H](C(=O)N1C[C@@H]2[C@H]([C@H]1C(=O)N[C@@H](CC1CCC1)C(=O)C(N)=O)C2(C)C)C(C)(C)C | 7.00 to 9.00 |
| CCCC(NC(=O)[C@@H]1[C@H]2[C@@H](CN1C(=O)[C@@H](NC(=O)OC(C)C)C(C)(C)C)C2(C)C)C(=O)C(=O)NCC(=O)N[C@H](C(=O)N(C)C)c1ccccc1 (stereo partly shown) | 7.00 to 9.00 |

Now from value to compound:

| pKi | SMILES |
| --- | --- |
| < 6.00 | CC(C)CC(NC(=O)[C@@H]1[C@@H]2[C@H](CN1C(=O)[C@@H](NC(=O)OC(C)(C)C)C1CCCCC1)C2(C)C)C(=O)C(=O)O (stereo partly shown) |
| 6.00 to 7.00 | CCCC(NC(=O)[C@@H]1[C@@H]2[C@H](CN1C(=O)[C@@H](NC(=O)NC1CCCCC1)C(C)(C)C)C2(C)C)C(=O)C(N)=O (stereo partly shown) |
| 6.00 to 7.00 | C=CCCC(NC(=O)[C@@H]1[C@H]2[C@@H](CN1C(=O)[C@@H](NC(=O)NC(C)(C)c1cccc(C(=C)C)c1)C1CCCCC1)C2(C)C)C(=O)C(=O)NCC=C (stereo partly shown) |

Same assay, conditions: Table 6; HCV NS3/NS4A protease, 30° C., pH 6.5; read-out: Ki*

| pKi | SMILES |
| --- | --- |
| 7.00 to 9.00 | CC1C[C@H]2CN(C(=O)[C@@H](NC(=O)OC(C)(C)C)C3CCCCC3)[C@H](C(=O)N[C@H](CC3CCC3)C(=O)C(=O)NCC(=O)N[C@H](C(=O)N(C)C)c3ccccc3)[C@H]2C1 (stereo partly shown) |
| 6.00 to 7.00 | CC(C)(C)NC(=O)N[C@H](C(=O)N1C[C@H]2[C@@H]([C@H]1C(=O)NC(CC1CCC1)C(=O)C(N)=O)C2(F)F)C(C)(C)C (stereo partly shown) |
| 6.00 to 7.00 | CCC(F)(F)CC(NC(=O)[C@@H]1[C@@H]2[C@H](CN1C(=O)[C@@H](NC(=O)NC(C)(C)C)C(C)(C)C)C2(C)C)C(=O)C(N)=O (stereo partly shown) |
| 7.00 to 9.00 | CN(C)C(=O)[C@@H](NC(=O)CNC(=O)C(=O)C(CCC(F)(F)F)NC(=O)[C@@H]1[C@H]2CC(C)(C)O[C@H]2CN1C(=O)[C@@H](NC(=O)NC(C)(C)C)C1CCCCC1)c1ccccc1 (stereo partly shown) [drawing 2397] |
| 7.00 to 9.00 | CN(C)C(=O)[C@@H](NC(=O)CNC(=O)C(=O)C(CC1CC1)NC(=O)[C@@H]1[C@H]2CC(C)(C)O[C@H]2CN1C(=O)[C@@H](NC(=O)NC(C)(C)C)C1(C)CCCCC1)c1ccccc1 (stereo partly shown) |
| 7.00 to 9.00 | CN(C)C(=O)[C@@H](NC(=O)CNC(=O)C(=O)C(CC1CC1)NC(=O)[C@@H]1[C@H]2CC(C)(C)O[C@H]2CN1C(=O)[C@@H](NC(=O)OC(C)(C)C)C(C)(C)C)c1ccsc1 (stereo partly shown) |
